Assay results published in PubChem BioAssay AID360 (National Center for Advancing Translational Sciences (NCATS), 2006).
About 550 (1.1%) of roughly 48,000 compounds were called active. Inconclusive results (about 4%) are left out. Rule as the data show it: active = potency below about 15 µM; inconclusive = mostly about 16 µM to 33 µM; inactive = weaker than that. The list shows a part of the results.

What follows are molecules tested against Lysosomal acid glucosylceramidase (Homo sapiens) (UniProt P04062) (assay: Glucocerebrosidase). Conditions: purified enzyme, resorufin glucoside fluorescence (screen aimed at inhibitors), 20 min.
In short: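 Normal human glucocerebrosidase (0.2 nM final) was assayed with resorufin β-D-glucopyranoside (30 uM final) in 50mM citric acid/KH2PO4, 10mM sodium taurocholate, 0.01% tween-20, pH 5.9. Compounds were titrated; fluorescence (Ex 548, Em 600) read after 20 min at RT.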
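Also: the screen sought inhibitors.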
Potency is read from the fitted curve at half-maximal effect.

Chain of UniProt P04062 (P04062 whole entry, looked up): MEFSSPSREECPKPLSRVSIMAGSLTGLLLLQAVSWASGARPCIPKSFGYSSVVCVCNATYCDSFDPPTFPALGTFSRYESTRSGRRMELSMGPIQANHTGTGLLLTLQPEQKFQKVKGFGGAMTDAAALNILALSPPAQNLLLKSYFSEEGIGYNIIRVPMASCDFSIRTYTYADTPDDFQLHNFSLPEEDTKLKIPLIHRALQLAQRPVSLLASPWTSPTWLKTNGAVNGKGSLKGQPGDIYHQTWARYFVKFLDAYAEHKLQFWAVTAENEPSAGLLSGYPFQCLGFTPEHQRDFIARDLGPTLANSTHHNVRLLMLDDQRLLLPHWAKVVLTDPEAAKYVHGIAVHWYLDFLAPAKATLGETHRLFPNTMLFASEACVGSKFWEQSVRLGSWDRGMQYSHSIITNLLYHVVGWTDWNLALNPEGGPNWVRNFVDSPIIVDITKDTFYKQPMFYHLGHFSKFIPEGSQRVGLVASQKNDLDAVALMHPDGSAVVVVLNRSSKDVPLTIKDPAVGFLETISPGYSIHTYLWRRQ

Potency, inactive:
O=C1CC(c2cc3c(cc2Br)OCO3)C2=C(CCCC2=O)N1 (configuration not stated) > 76.9 µM, O=C(CN1C(=O)c2cccc3cccc1c23)N1CCc2ccccc2C1 > 76.9 µM, CCn1c(Cc2ccccc2)nnc1SCC(=O)NC(C)(C)C > 76.9 µM, COc1ccccc1N1CCN(C(=O)c2ccc(C(C)(C)C)cc2)CC1 > 76.9 µM, CCn1c(SC/C=C/c2ccccc2)nnc1-c1cccs1 > 76.9 µM, O=C1CC(c2ccco2)=Nc2ccccc2N1 > 76.9 µM, C=CCn1c(SCC(=O)c2ccc(O)c(O)c2)nnc1-c1ccccc1OC > 76.9 µM, COc1ccc(CCNC(=O)c2ccc3c(=O)n(Cc4ccco4)c(=S)[nH]c3c2)cc1OC, O=C(Nc1ccncc1)Nc1ccccn1 > 76.9 µM, CN(C)c1nc(OCCOC(=O)COc2ccc(Cl)cc2Cl)nc(N(C)C)n1 > 76.9 µM, Cc1cc(=S)[nH]c2ccccc12 > 76.9 µM, CCOC(=O)C1CCCN(C(=O)c2cncc(Br)c2)C1 (configuration not stated) > 76.9 µM, CCn1c(SCC(=O)Nc2ccc(N3CCOCC3)c(Cl)c2)nnc1-c1ccc(N)cc1 > 76.9 µM, O=C(Nc1cccnc1)c1c(O)c2cccc3c2n(c1=O)CC3 > 76.9 µM, COC(=O)c1sc(S(=O)(=O)N2CCCCC2)c(C(=O)OC)c1C > 76.9 µM, CC(C)C(=O)c1cn(CC(=O)NCC2CCCO2)c2ccccc12 (configuration not stated) > 76.9 µM, OC(c1ccc(Cl)cc1)c1nnc(-c2ccccc2)o1 (configuration not stated) > 76.9 µM, CN(CC(=O)Nc1nc2ccccc2s1)S(=O)(=O)c1ccccc1 > 76.9 µM, COc1cc(C2C(C#N)=C(N)OC3=C2C(=O)CCC3)ccc1OC(=O)N1CCOCC1 (configuration not stated) > 76.9 µM, O=C(Nc1ccc2c(c1)OCO2)c1c(F)cccc1F > 76.9 µM, CCOC(=O)Nc1ccc(S(=O)(=O)Nc2nccc(C)n2)cc1 > 76.9 µM, N=c1c(S(=O)(=O)c2ccccc2)cc2c(=O)n3ccccc3nc2n1CCN1CCOCC1 > 76.9 µM, COc1ccccc1NC(=O)c1ccc(COc2ccccc2OC)o1 > 76.9 µM, O=C(O)CSC1=NCCN1 > 76.9 µM, COCCCn1c(SCC(=O)Nc2cccc(C)n2)nnc1-c1ccco1 > 76.9 µM, CCCn1c2c(c(O)c(C(=O)Nc3ncccc3O)c1=O)CCCC2 > 76.9 µM, Cc1cccc(-n2nnnc2SCC(=O)c2cc(C)n(CC3CCCO3)c2C)c1 (configuration not stated) > 76.9 µM, COc1cc(NS(=O)(=O)c2ccc(NC(=O)CSC3=NCCS3)cc2)nc(OC)n1 > 76.9 µM, C=CCc1cccc2cc(C(=O)NC)c(=O)oc12 > 76.9 µM, COc1ccc(C(=O)Nc2ccc(-c3ccc(C)o3)cc2)cc1S(=O)(=O)N1CCOCC1 > 76.9 µM, O=C(NCCc1ccc(Cl)cc1)C1CCN(S(=O)(=O)c2cccc3nonc23)CC1 > 76.9 µM, Cc1cc2oc(=O)cc(COC(=O)Cn3cnnn3)c2cc1C(C)C > 76.9 µM, CC(C)N(C(=O)CSc1nnc(CN2CCCCCC2=O)n1-c1ccccn1)C(C)C > 76.9 µM, COc1cccc(-n2c(SCC#N)nnc2-c2cnccn2)c1 > 76.9 µM, Cc1nn(-c2ccccc2)c(N2CCCC2)c1/C=N/n1cnc2scc(-c3ccccc3)c2c1=O > 76.9 µM, O=C(NC1=NCCS1)c1cccs1 > 76.9 µM, O=C(NCCCN1CCCCCC1)c1ccc(CS(=O)(=O)Cc2ccccc2F)o1 > 76.9 µM, c1ccc(OCCCn2nnc(-c3cccnc3)n2)cc1 > 76.9 µM, CCC1CCCCN1CCNC(=O)c1[nH]c(C)c(C(C)=O)c1C (configuration not stated) > 76.9 µM, COc1cc(NS(C)(=O)=O)c(OC)cc1NC(=O)c1ccccc1 > 76.9 µM, Cc1ccc(S(=O)(=O)NCCCN2CCOCC2)cc1C, Cc1nn(-c2ccccc2)c(C)c1C(=O)OCC(=O)c1c(N)n(CC(C)C)c(=O)n(C)c1=O > 76.9 µM, COc1ccc(-c2cc(C(=O)Nc3c(C)nn(Cc4ccc(Cl)cc4)c3C)no2)cc1 > 76.9 µM, O=c1nc(C(F)(F)F)nc2ccccn12 > 76.9 µM, CCOC(=O)CNC(=O)Cn1cnc2c(nnn2-c2ccc(F)cc2)c1=O > 76.9 µM, COc1ccc(CN2CC(C(=O)NCCN3CCN(c4ccccc4F)CC3)CC2=O)cc1 (configuration not stated) > 76.9 µM, COc1cc(NC(=O)c2cccs2)cc(OC)c1 > 76.9 µM, COc1cc(OC)c(C2C(C#N)=C(N)Oc3cc(C)n(CCCN4CCOCC4)c(=O)c32)cc1OC (configuration not stated) > 76.9 µM, N#C/C(C(=O)c1ccccc1)=C1/CCCCCN1 > 76.9 µM, COc1ccc(S(=O)(=O)N2CCOCC2)cc1C(=O)Nc1nc2ccccc2s1 > 76.9 µM, Cc1ccc(S(=O)(=O)N[C@H](C(=O)N2CCC(C(=O)NCC(=O)O)CC2)C(C)C)cc1 > 76.9 µM, CC(=O)Nc1ccc(S(=O)(=O)N2CCN(C3CCCCCCC3)CC2)cc1 > 76.9 µM, O=C(O)c1ccc(OCc2occc2C(=O)O)cc1 > 76.9 µM, CCCCCc1ccc(CC(=O)O)cc1 > 76.9 µM, CCOc1cc(C(=O)Nc2ncccn2)cc(OCC)c1OCC > 76.9 µM, CC(=O)c1ccc(NC(=O)CCc2c(C)nc3ncnn3c2C)cc1 > 76.9 µM, COc1ccc(N(CC(=O)N2CCc3ccccc32)S(=O)(=O)c2c(C)noc2C)cc1 > 76.9 µM, C=CCn1c(SCc2ccc(Cl)cc2)nc2c1c(=O)[nH]c(=O)n2C > 76.9 µM, O=C(Nc1ccccc1N1CCN(c2ccc(F)cc2)CC1)c1ccccc1 > 76.9 µM, COc1ccc(/C(O)=C2/C(=O)C(=O)N(CCCN(C)C)C2c2cccnc2)cc1 (configuration not stated) > 76.9 µM, O=C(COC(=O)c1ccc(S(=O)(=O)N2CCCC2)cc1)NCc1ccccc1 > 76.9 µM, COc1ccc(CCNC(=O)c2cc(-c3cccs3)on2)cc1OC > 76.9 µM, COc1ccc(Cn2c(=O)[nH]c3cc(C(=O)NCCCN4CCCCC4)ccc3c2=O)cc1 > 76.9 µM, CN(c1ccc(O)cc1)c1nc(-c2ccccc2)cs1, CC(C)CNC(=O)c1cccc(C(=O)NCC(C)C)c1 > 76.9 µM, CN1CCN(CC(O)COc2ccc(OCC(O)CN3CCN(C)CC3)cc2)CC1 (configuration not stated) > 76.9 µM, O=C(Nc1ccc(C2CCCCC2)cc1)C1CCN(c2ncccn2)CC1 > 76.9 µM, CCOC(=O)c1cc2c(=O)n3ccccc3nc2n(Cc2ccc(Cl)cc2)c1=N > 76.9 µM, OCCN1CCN(CC(O)COc2ccc3c(c2)OCO3)CC1 (configuration not stated) > 76.9 µM, O=C(Oc1cccnc1)c1ccc(Cl)cc1 > 76.9 µM, Cc1oc(-c2cccc(Cl)c2)nc1CN1CCC(C(=O)NCC2CCCO2)CC1 (configuration not stated) > 76.9 µM, CN1CCOc2cc(S(=O)(=O)Nc3ccc(F)cc3)ccc21 > 76.9 µM, O=C(CSC1=Nc2ccccc2C2=NC(CC(=O)NCc3ccco3)C(=O)N12)NCC1CCCO1 (configuration not stated) > 76.9 µM, CSC1=C(C#N)C(c2cccc(Br)c2)CC(=O)N1 (configuration not stated) > 76.9 µM, O=C(O)CCN1C(=O)C(=C2CCCCCC2)SC1=S > 76.9 µM, CC1(C)Cn2c(nnc2-c2ccccc2)S1 > 76.9 µM, CCNc1nc(N)nc(Oc2ccc(OCCOc3ccc(Cl)cc3Cl)nn2)n1 > 76.9 µM, CCCOC(=O)CCn1c(=S)oc2ccccc21 > 76.9 µM, Cc1onc(-c2ccccc2Cl)c1C(=O)Nc1cccc2nsnc12 > 76.9 µM, Cc1nc2ncnn2c(C)c1CCC(=O)Nc1csc(N)n1 > 76.9 µM, Cc1cc(C(=O)Nc2sc(C)c(C)c2C#N)c(C)o1 > 76.9 µM, CCOC(=O)c1cnc(SCC(=O)Nc2sc(C)c(C)c2C#N)nc1N > 76.9 µM, Cc1cccc(C2N(c3nccs3)C(=O)C3CCCN32)c1 (configuration not stated) > 76.9 µM, O=c1c2c([nH]c3ccccc13)CCCCCC2, O=C(Nc1cccc2nsnc12)c1cccs1 > 76.9 µM, O=C(O)CC(C(=O)O)c1cn(Cc2ccccc2)c2ccccc12 (configuration not stated) > 76.9 µM, CCOC(=O)C1CCN(C(=O)c2ccccc2N(C)S(C)(=O)=O)CC1 > 76.9 µM, COc1cccc(OC)c1C(=O)N1CCOCC1 > 76.9 µM, CCOc1ccccc1N=C1NC(=O)CS1 > 76.9 µM, COC(=O)NCC1(C)CC(NC(=O)OC)CC(C)(C)C1 (configuration not stated) > 76.9 µM, Cc1cc(NC(=O)CCC(=O)N(c2cccnc2)C(C(=O)NC2CCCC2)c2ccccc2F)no1 (configuration not stated) > 76.9 µM, Cc1nc2ccccc2n1CC(O)Cn1c(C(F)(F)F)nc2ccccc21 (configuration not stated) > 76.9 µM
